# Reference: the supplement of paper PMC8728848
# The other results are listed elsewhere or left out.
# B1: rCNL (Clitocybe nebularis), B2ZRS9 (protein)
# chain: SITPGTYNITNVAYTNRLIDLTGSNPAENTLIIGHHLNKTPSGYGNQQWTLVQLPHTTIYTMQAVNPQSYVRVRDDNLVDGAALVGSQQPTPVSIESAGNSGQFRIKIPNLGLALTLPSDANSTPIVLGEVDETSTNQLWAFESVSAV
# Assays:
# Test in all cases: glycan array binding signal (z-score within array); higher = stronger binding
# Conditions in all cases: glycan notation: IUPAC condensed, linker removed
# [1] = target: Fuc(a1-2)[Gal(a1-3)]Gal(b1-3)GlcNAc(b1-6)GalNAc
# Outline: (§1)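 The Consortium for Functional Glycomics database supplied 3228 glycan arrays, of which those lacking an available protein sequence were dropped. The binding signal, a within-array Z-score, was averaged across arrays of the same protein sequence and across linkers. Negative scores can be read as non-binding.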
# [2] = target: Fuc(a1-2)[Gal(a1-3)]Gal(b1-4)Glc
# Outline: as §1
# [3] = target: Fuc(a1-2)[Gal(a1-3)]Gal(b1-4)GlcNAc
# Outline: as §1
# [4] = target: Fuc(a1-2)[Gal(a1-3)]Gal(b1-4)GlcNAc(b1-2)Man
# Outline: as §1
# [5] = target: Fuc(a1-2)[Gal(a1-3)]Gal(b1-4)GlcNAc(b1-2)Man(a1-3)[Fuc(a1-2)[Gal(a1-3)]Gal(b1-4)GlcNAc(b1-2)Man(a1-6)]Man(b1-4)GlcNAc(b1-4)GlcNAc
# Outline: as §1
# [6] = target: Fuc(a1-2)[Gal(a1-3)]Gal(b1-4)GlcNAc(b1-2)Man(a1-3)[Fuc(a1-2)[Gal(a1-3)]Gal(b1-4)GlcNAc(b1-2)Man(a1-6)]Man(b1-4)GlcNAc(b1-4)[Fuc(a1-6)]GlcNAc
# Outline: as §1
# [7] = target: Fuc(a1-2)[Gal(a1-3)]Gal(b1-4)GlcNAc(b1-3)GalNAc
# Outline: as §1
# [8] = target: Fuc(a1-2)[Gal(a1-3)]Gal(b1-4)GlcNAc(b1-3)[Fuc(a1-2)[Gal(a1-3)]Gal(b1-4)GlcNAc(b1-6)]GalNAc
# Outline: as §1
# [9] = target: Fuc(a1-2)[Gal(a1-3)]Gal(b1-4)GlcNAc(b1-6)GalNAc
# Outline: as §1
# [10] = target: Fuc(a1-2)[Gal(a1-3)]Gal(b1-4)[Fuc(a1-3)]Glc
# Outline: as §1
# [11] = target: Fuc(a1-2)[Gal(a1-3)]Gal(b1-4)[Fuc(a1-3)]GlcNAc
# Outline: as §1
# [12] = target: Fuc(a1-2)[Gal(a1-3)]Gal(b1-4)[Fuc(a1-3)]GlcNAc(b1-3)GalNAc
# Outline: as §1
# [13] = target: Fuc(a1-2)[Gal(a1-4)]Gal(b1-4)GlcNAc
# Outline: as §1
# [14] = target: Fuc(a1-2)[GalNAc(a1-3)]Gal
# Outline: as §1
# [15] = target: Fuc(a1-2)[GalNAc(a1-3)]Gal(b1-3)GalNAc(a1-3)[Fuc(a1-2)]Gal(b1-4)GlcNAc
# Outline: as §1
# [16] = target: Fuc(a1-2)[GalNAc(a1-3)]Gal(b1-3)GalNAc(b1-3)Gal(a1-4)Gal(b1-4)Glc
# Outline: as §1
# [17] = target: Fuc(a1-2)[GalNAc(a1-3)]Gal(b1-3)GlcNAc
# Outline: as §1
# [18] = target: Fuc(a1-2)[GalNAc(a1-3)]Gal(b1-3)GlcNAc(b1-2)Man(a1-3)[Fuc(a1-2)[GalNAc(a1-3)]Gal(b1-3)GlcNAc(b1-2)Man(a1-6)]Man(b1-4)GlcNAc(b1-4)GlcNAc
# Outline: as §1
# [19] = target: Fuc(a1-2)[GalNAc(a1-3)]Gal(b1-3)GlcNAc(b1-2)Man(a1-3)[Fuc(a1-2)[GalNAc(a1-3)]Gal(b1-3)GlcNAc(b1-2)Man(a1-6)]Man(b1-4)GlcNAc(b1-4)[Fuc(a1-6)]GlcNAc
# Outline: as §1
# [20] = target: Fuc(a1-2)[GalNAc(a1-3)]Gal(b1-3)GlcNAc(b1-3)GalNAc
# Outline: as §1
# [21] = target: Fuc(a1-2)[GalNAc(a1-3)]Gal(b1-3)GlcNAc(b1-6)GalNAc
# Outline: as §1
# [22] = target: Fuc(a1-2)[GalNAc(a1-3)]Gal(b1-4)Glc
# Outline: as §1
# [23] = target: Fuc(a1-2)[GalNAc(a1-3)]Gal(b1-4)GlcNAc
# Outline: as §1
# [24] = target: Fuc(a1-2)[GalNAc(a1-3)]Gal(b1-4)GlcNAc(b1-2)Man
# Outline: as §1
# [25] = target: Fuc(a1-2)[GalNAc(a1-3)]Gal(b1-4)GlcNAc(b1-2)Man(a1-3)[Fuc(a1-2)[GalNAc(a1-3)]Gal(b1-4)GlcNAc(b1-2)Man(a1-6)]Man(b1-4)GlcNAc(b1-4)GlcNAc
# Outline: as §1
# [26] = target: Fuc(a1-2)[GalNAc(a1-3)]Gal(b1-4)GlcNAc(b1-2)Man(a1-3)[Fuc(a1-2)[GalNAc(a1-3)]Gal(b1-4)GlcNAc(b1-2)Man(a1-6)]Man(b1-4)GlcNAc(b1-4)[Fuc(a1-6)]GlcNAc
# Outline: as §1
# [27] = target: Fuc(a1-2)[GalNAc(a1-3)]Gal(b1-4)GlcNAc(b1-3)Gal(b1-4)GlcNAc
# Outline: as §1
# [28] = target: Fuc(a1-2)[GalNAc(a1-3)]Gal(b1-4)GlcNAc(b1-3)Gal(b1-4)GlcNAc(b1-3)Gal(b1-4)GlcNAc
# Outline: as §1
# [29] = target: Fuc(a1-2)[GalNAc(a1-3)]Gal(b1-4)GlcNAc(b1-3)GalNAc
# Outline: as §1
# [30] = target: Fuc(a1-2)[GalNAc(a1-3)]Gal(b1-4)GlcNAc(b1-3)[Fuc(a1-2)[GalNAc(a1-3)]Gal(b1-4)GlcNAc(b1-6)]GalNAc
# Outline: as §1
# [31] = target: Fuc(a1-2)[GalNAc(a1-3)]Gal(b1-4)GlcNAc(b1-6)GalNAc
# Outline: as §1
# [32] = target: Fuc(a1-2)[GalNAc(a1-3)]Gal(b1-4)[Fuc(a1-3)]GlcNAc
# Outline: as §1
# [33] = target: Fuc(a1-2)[GalNAc(a1-3)]Gal(b1-4)[Fuc(a1-3)]GlcNAc(b1-3)GalNAc
# Outline: as §1
# [34] = target: Fuc(a1-2)[GalNAc(a1-4)]Gal(b1-4)GlcNAc
# Outline: as §1
# [35] = target: Fuc(a1-2)[GalNAc(b1-3)]Gal
# Outline: as §1
# [36] = target: Fuc(a1-3)GlcNAc
# Outline: as §1
# [37] = target: Fuc(a1-3)[Gal(b1-4)]Glc6S
# Outline: as §1
# [38] = target: Fuc(a1-3)[Gal(b1-4)]GlcNAc
# Outline: as §1
# [39] = target: Fuc(a1-3)[Gal(b1-4)]GlcNAc(b1-2)Man
# Outline: as §1
# [40] = target: Fuc(a1-3)[Gal(b1-4)]GlcNAc(b1-2)Man(a1-3)[Fuc(a1-3)[Gal(b1-4)]GlcNAc(b1-2)Man(a1-6)]Man(b1-4)GlcNAc(b1-4)GlcNAc
# Outline: as §1
# [41] = target: Fuc(a1-3)[Gal(b1-4)]GlcNAc(b1-2)Man(a1-3)[Fuc(a1-3)[Gal(b1-4)]GlcNAc(b1-2)Man(a1-6)]Man(b1-4)GlcNAc(b1-4)[Fuc(a1-6)]GlcNAc
# Outline: as §1
# [42] = target: Fuc(a1-3)[Gal(b1-4)]GlcNAc(b1-3)Gal(b1-3)[Fuc(a1-4)]GlcNAc
# Outline: as §1
# [43] = target: Fuc(a1-3)[Gal(b1-4)]GlcNAc(b1-3)Gal(b1-4)[Fuc(a1-3)]GlcNAc
# Outline: as §1
# [44] = target: Fuc(a1-3)[Gal(b1-4)]GlcNAc(b1-3)Gal(b1-4)[Fuc(a1-3)]GlcNAc(b1-3)Gal(b1-4)[Fuc(a1-3)]GlcNAc
# Outline: as §1
# [45] = target: Fuc(a1-3)[Gal(b1-4)]GlcNAc(b1-3)GalNAc
# Outline: as §1
binder,measurement,setting,value
B1,glycan array binding signal (z-score),[1],-0.193
same,glycan array binding signal (z-score),[2],-0.182
same,glycan array binding signal (z-score),[3],0.043
same,glycan array binding signal (z-score),[4],-0.215
same,glycan array binding signal (z-score),[5],0.138
same,glycan array binding signal (z-score),[6],-0.17
same,glycan array binding signal (z-score),[7],-0.209
same,glycan array binding signal (z-score),[8],-0.218
same,glycan array binding signal (z-score),[9],-0.218
same,glycan array binding signal (z-score),[10],-0.224
same,glycan array binding signal (z-score),[11],-0.235
same,glycan array binding signal (z-score),[12],-0.214
same,glycan array binding signal (z-score),[13],-0.294
same,glycan array binding signal (z-score),[14],2.83
same,glycan array binding signal (z-score),[15],2.47
same,glycan array binding signal (z-score),[16],3.06
same,glycan array binding signal (z-score),[17],2.3
same,glycan array binding signal (z-score),[18],2.65
same,glycan array binding signal (z-score),[19],-0.151
same,glycan array binding signal (z-score),[20],1.16
same,glycan array binding signal (z-score),[21],1.69
same,glycan array binding signal (z-score),[22],2.49
same,glycan array binding signal (z-score),[23],3.08
same,glycan array binding signal (z-score),[24],3.12
same,glycan array binding signal (z-score),[25],4
same,glycan array binding signal (z-score),[26],1.23
same,glycan array binding signal (z-score),[27],3.46
same,glycan array binding signal (z-score),[28],3.25
same,glycan array binding signal (z-score),[29],0.992
same,glycan array binding signal (z-score),[30],2.18
same,glycan array binding signal (z-score),[31],2.35
same,glycan array binding signal (z-score),[32],1.32
same,glycan array binding signal (z-score),[33],-0.214
same,glycan array binding signal (z-score),[34],1.89
same,glycan array binding signal (z-score),[35],-0.196
same,glycan array binding signal (z-score),[36],-0.311
same,glycan array binding signal (z-score),[37],-0.295
same,glycan array binding signal (z-score),[38],-0.299
same,glycan array binding signal (z-score),[39],-0.224
same,glycan array binding signal (z-score),[40],-0.211
same,glycan array binding signal (z-score),[41],-0.218
same,glycan array binding signal (z-score),[42],-0.288
same,glycan array binding signal (z-score),[43],-0.216
same,glycan array binding signal (z-score),[44],-0.222
same,glycan array binding signal (z-score),[45],-0.278
